# Assay results reported in the supplement of paper PMC8728848.
# The list shows a part of the results.
# What was measured:
# Test in all cases: glycan array binding signal (z-score within array); higher = stronger binding
# Conditions in all cases: glycan notation: IUPAC condensed, linker removed; mutation: W10H
# [1] = target: Gal(b1-4)GlcNAc(b1-2)[Gal(b1-4)GlcNAc(b1-6)]Man(a1-6)[Gal(b1-4)GlcNAc(b1-2)Man(a1-3)]Man(b1-4)GlcNAc(b1-4)[Fuc(a1-6)]GlcNAc
# In short: (§1)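 Glycan array data came from 3228 arrays in the Consortium for Functional Glycomics database, and only arrays with an available protein sequence were kept. Glycan names were put into IUPAC-condensed notation, and columns mapping to the same glycan were averaged. The binding signal is a within-array Z-score, averaged across arrays of one protein sequence run at different concentrations or buffers and across linkers. A negative Z-score can be read as non-binding.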
# [2] = target: Gal(b1-4)GlcNAc(b1-2)[Gal(b1-4)GlcNAc(b1-6)]Man(a1-6)[GlcNAc(b1-4)][Gal(b1-4)GlcNAc(b1-2)Man(a1-3)]Man(b1-4)GlcNAc(b1-4)GlcNAc
# In short: as §1
# [3] = target: Gal(b1-4)GlcNAc(b1-2)[Gal(b1-4)GlcNAc(b1-6)]Man(a1-6)[GlcNAc(b1-4)][Gal(b1-4)GlcNAc(b1-2)[Gal(b1-4)GlcNAc(b1-4)]Man(a1-3)]Man(b1-4)GlcNAc(b1-4)[Fuc(a1-6)]GlcNAc
# In short: as §1
# [4] = target: Gal(b1-4)GlcNAc(b1-3)Gal(b1-3)GalNAc
# In short: as §1
# [5] = target: Gal(b1-4)GlcNAc(b1-3)Gal(b1-3)GlcNAc
# In short: as §1
# [6] = target: Gal(b1-4)GlcNAc(b1-3)Gal(b1-4)Glc
# In short: as §1
# [7] = target: Gal(b1-4)GlcNAc(b1-3)Gal(b1-4)GlcNAc
# In short: as §1
# [8] = target: Gal(b1-4)GlcNAc(b1-3)Gal(b1-4)GlcNAc(b1-2)Man(a1-3)[Gal(b1-4)GlcNAc(b1-3)Gal(b1-4)GlcNAc(b1-2)Man(a1-6)]Man(b1-4)GlcNAc(b1-4)GlcNAc
# In short: as §1
# [9] = target: Gal(b1-4)GlcNAc(b1-3)Gal(b1-4)GlcNAc(b1-2)Man(a1-3)[Gal(b1-4)GlcNAc(b1-3)Gal(b1-4)GlcNAc(b1-2)Man(a1-6)]Man(b1-4)GlcNAc(b1-4)[Fuc(a1-6)]GlcNAc
# In short: as §1
# [10] = target: Gal(b1-4)GlcNAc(b1-3)Gal(b1-4)GlcNAc(b1-2)[Gal(b1-4)GlcNAc(b1-3)Gal(b1-4)GlcNAc(b1-6)]Man(a1-6)[Gal(b1-4)GlcNAc(b1-3)Gal(b1-4)GlcNAc(b1-2)Man(a1-3)]Man(b1-4)GlcNAc(b1-4)GlcNAc
# In short: as §1
# [11] = target: Gal(b1-4)GlcNAc(b1-3)Gal(b1-4)GlcNAc(b1-2)[Gal(b1-4)GlcNAc(b1-3)Gal(b1-4)GlcNAc(b1-6)]Man(a1-6)[Gal(b1-4)GlcNAc(b1-3)Gal(b1-4)GlcNAc(b1-2)Man(a1-3)]Man(b1-4)GlcNAc(b1-4)[Fuc(a1-6)]GlcNAc
# In short: as §1
# [12] = target: Gal(b1-4)GlcNAc(b1-3)Gal(b1-4)GlcNAc(b1-3)Gal(b1-4)GlcNAc
# In short: as §1
# [13] = target: Gal(b1-4)GlcNAc(b1-3)Gal(b1-4)GlcNAc(b1-3)Gal(b1-4)GlcNAc(b1-2)Man(a1-3)[Gal(b1-4)GlcNAc(b1-3)Gal(b1-4)GlcNAc(b1-3)Gal(b1-4)GlcNAc(b1-2)Man(a1-6)]Man(b1-4)GlcNAc(b1-4)GlcNAc
# In short: as §1
# [14] = target: Gal(b1-4)GlcNAc(b1-3)Gal(b1-4)GlcNAc(b1-3)Gal(b1-4)GlcNAc(b1-2)Man(a1-3)[Gal(b1-4)GlcNAc(b1-3)Gal(b1-4)GlcNAc(b1-3)Gal(b1-4)GlcNAc(b1-2)Man(a1-6)]Man(b1-4)GlcNAc(b1-4)[Fuc(a1-6)]GlcNAc
# In short: as §1
# [15] = target: Gal(b1-4)GlcNAc(b1-3)Gal(b1-4)GlcNAc(b1-3)Gal(b1-4)GlcNAc(b1-2)[Gal(b1-4)GlcNAc(b1-3)Gal(b1-4)GlcNAc(b1-3)Gal(b1-4)GlcNAc(b1-6)]Man(a1-6)[Gal(b1-4)GlcNAc(b1-3)Gal(b1-4)GlcNAc(b1-3)Gal(b1-4)GlcNAc(b1-2)Man(a1-3)]Man(b1-4)GlcNAc(b1-4)[Fuc(a1-6)]GlcNAc
# In short: as §1
# [16] = target: Gal(b1-4)GlcNAc(b1-3)Gal(b1-4)GlcNAc(b1-3)Gal(b1-4)GlcNAc(b1-3)Gal(b1-4)GlcNAc(b1-2)Man(a1-3)[Gal(b1-4)GlcNAc(b1-3)Gal(b1-4)GlcNAc(b1-3)Gal(b1-4)GlcNAc(b1-3)Gal(b1-4)GlcNAc(b1-2)Man(a1-6)]Man(b1-4)GlcNAc(b1-4)GlcNAc
# In short: as §1
# [17] = target: Gal(b1-4)GlcNAc(b1-3)Gal(b1-4)GlcNAc(b1-3)Gal(b1-4)GlcNAc(b1-3)Gal(b1-4)GlcNAc(b1-2)Man(a1-3)[Gal(b1-4)GlcNAc(b1-3)Gal(b1-4)GlcNAc(b1-3)Gal(b1-4)GlcNAc(b1-3)Gal(b1-4)GlcNAc(b1-2)Man(a1-6)]Man(b1-4)GlcNAc(b1-4)[Fuc(a1-6)]GlcNAc
# In short: as §1
# [18] = target: Gal(b1-4)GlcNAc(b1-3)Gal(b1-4)GlcNAc(b1-3)Gal(b1-4)GlcNAc(b1-3)Gal(b1-4)GlcNAc(b1-2)[Gal(b1-4)GlcNAc(b1-3)Gal(b1-4)GlcNAc(b1-3)Gal(b1-4)GlcNAc(b1-3)Gal(b1-4)GlcNAc(b1-6)]Man(a1-6)[Gal(b1-4)GlcNAc(b1-3)Gal(b1-4)GlcNAc(b1-3)Gal(b1-4)GlcNAc(b1-3)Gal(b1-4)GlcNAc(b1-2)Man(a1-3)]Man(b1-4)GlcNAc(b1-4)[Fuc(a1-6)]GlcNAc
# In short: as §1
# [19] = target: Gal(b1-4)GlcNAc(b1-3)Gal(b1-4)GlcNAc(b1-3)Gal(b1-4)GlcNAc(b1-3)Gal(b1-4)GlcNAc(b1-3)Gal(b1-4)GlcNAc(b1-2)Man(a1-3)[Gal(b1-4)GlcNAc(b1-3)Gal(b1-4)GlcNAc(b1-3)Gal(b1-4)GlcNAc(b1-3)Gal(b1-4)GlcNAc(b1-3)Gal(b1-4)GlcNAc(b1-2)Man(a1-6)]Man(b1-4)GlcNAc(b1-4)GlcNAc
# In short: as §1
# [20] = target: Gal(b1-4)GlcNAc(b1-3)Gal(b1-4)GlcNAc(b1-3)Gal(b1-4)GlcNAc(b1-3)Gal(b1-4)GlcNAc(b1-3)Gal(b1-4)GlcNAc(b1-2)Man(a1-3)[Gal(b1-4)GlcNAc(b1-3)Gal(b1-4)GlcNAc(b1-3)Gal(b1-4)GlcNAc(b1-3)Gal(b1-4)GlcNAc(b1-3)Gal(b1-4)GlcNAc(b1-2)Man(a1-6)]Man(b1-4)GlcNAc(b1-4)[Fuc(a1-6)]GlcNAc
# In short: as §1
# [21] = target: Gal(b1-4)GlcNAc(b1-3)Gal(b1-4)GlcNAc(b1-3)Gal(b1-4)GlcNAc(b1-3)Gal(b1-4)GlcNAc(b1-3)Gal(b1-4)GlcNAc(b1-2)[Gal(b1-4)GlcNAc(b1-3)Gal(b1-4)GlcNAc(b1-3)Gal(b1-4)GlcNAc(b1-3)Gal(b1-4)GlcNAc(b1-3)Gal(b1-4)GlcNAc(b1-6)]Man(a1-6)[Gal(b1-4)GlcNAc(b1-3)Gal(b1-4)GlcNAc(b1-3)Gal(b1-4)GlcNAc(b1-3)Gal(b1-4)GlcNAc(b1-3)Gal(b1-4)GlcNAc(b1-2)Man(a1-3)]Man(b1-4)GlcNAc(b1-4)[Fuc(a1-6)]GlcNAc
# In short: as §1
# [22] = target: Gal(b1-4)GlcNAc(b1-3)Gal(b1-4)GlcNAc(b1-3)Gal(b1-4)GlcNAc(b1-3)Gal(b1-4)GlcNAc(b1-3)Gal(b1-4)GlcNAc(b1-3)Gal(b1-4)GlcNAc(b1-2)Man(a1-3)[Gal(b1-4)GlcNAc(b1-3)Gal(b1-4)GlcNAc(b1-3)Gal(b1-4)GlcNAc(b1-3)Gal(b1-4)GlcNAc(b1-3)Gal(b1-4)GlcNAc(b1-3)Gal(b1-4)GlcNAc(b1-2)Man(a1-6)]Man(b1-4)GlcNAc(b1-4)GlcNAc
# In short: as §1
# [23] = target: Gal(b1-4)GlcNAc(b1-3)Gal(b1-4)GlcNAc(b1-3)GalNAc
# In short: as §1
binder,measurement,setting,value
Banana lectin (Musa acuminata) (protein) MNGAIKVGAHGGNGGSAFDMGPAYRIISVKIFSGDVVDGVDVTFTYYGKTETRHYGGSGGTPHEIVLQEGEYLVGMAGEVANYHGAVVLGKLGFSTNKKAYGPFGNTGGTPFSLPIAAGKISGFFGRGGKFLDAIGVYLEPLEHHHHHH,glycan array binding signal (z-score),[1],-0.143
same,glycan array binding signal (z-score),[2],-0.204
same,glycan array binding signal (z-score),[3],-0.182
same,glycan array binding signal (z-score),[4],-0.184
same,glycan array binding signal (z-score),[5],-0.177
same,glycan array binding signal (z-score),[6],-0.13
same,glycan array binding signal (z-score),[7],-0.166
same,glycan array binding signal (z-score),[8],-0.132
same,glycan array binding signal (z-score),[9],-0.157
same,glycan array binding signal (z-score),[10],-0.113
same,glycan array binding signal (z-score),[11],-0.155
same,glycan array binding signal (z-score),[12],-0.19
same,glycan array binding signal (z-score),[13],-0.169
same,glycan array binding signal (z-score),[14],-0.152
same,glycan array binding signal (z-score),[15],-0.123
same,glycan array binding signal (z-score),[16],-0.127
same,glycan array binding signal (z-score),[17],-0.135
same,glycan array binding signal (z-score),[18],-0.097
same,glycan array binding signal (z-score),[19],-0.137
same,glycan array binding signal (z-score),[20],-0.16
same,glycan array binding signal (z-score),[21],-0.109
same,glycan array binding signal (z-score),[22],0.007
same,glycan array binding signal (z-score),[23],-0.141
